The test deals with T1, His-tagged ERR3 LBD (wild type; residues 229 to 458 of the Estrogen-Related Receptor 3) (human (human and murine receptor are …, UniProt P62508 229-458).
T1 construct: Expressed in E. coli BL21(DE3); Forms a homodimer in the crystal, in gel filtration and in mass spectrometry; SwissProt O75454 is printed for hERR3; also called wt LBD; wt ERR3; not shown: hexahistidine tag from vector pET-15b
T1 sequence: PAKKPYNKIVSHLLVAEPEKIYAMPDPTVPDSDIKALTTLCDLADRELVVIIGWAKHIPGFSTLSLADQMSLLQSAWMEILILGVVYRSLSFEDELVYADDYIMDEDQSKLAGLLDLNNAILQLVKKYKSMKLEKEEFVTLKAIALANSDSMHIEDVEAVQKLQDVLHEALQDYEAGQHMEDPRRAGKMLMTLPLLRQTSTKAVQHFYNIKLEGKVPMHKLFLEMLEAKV
Description: native polyacrylamide gradient gel, proteins mixed 10 min on ice. The procedure:
After purification the proteins were dialyzed in assay buffer (20 mM Tris.HCl pH 8.0, 200 mM NaCl), and concentrated. […] Protein complexes were resolved on native polyacrylamide gradient gels (8%-25%) using the Phast System (Pharmacia).
In vitro interaction assays with the RID (amino acids 617-764) of the coactivator SRC-1 has first been performed. […] Complexes were separated on native polyacrylamide gradient gels.

The values that follow come from patent US7279325 (dated 2007).

B1: GST (other)
chain: not shown
notes: also called glutathione S-transferase
Turning to B1, the binding result is “no binding”.
